# Out of some 310,000 compounds screened, about 17,000 (5.5%) were called active. Another 11% or so got no clear call; they are omitted. Calls come from the whole dose curve; as a rule, active = well fitted inhibition curve with a large enough effect; inconclusive = small, poorly fitted or top-dose-only effect, or effect the other way; inactive = no such curve, though single readings can be large or run the other way. This is a selection; strong and weak results do not stand in their true shares.
# Target: Nuclear receptor ROR-gamma (Mus musculus) (UniProt P51450)
# Assay: qHTS for inhibitors of ROR gamma transcriptional activity; note: nearly all actives have a fitted effect of over 60% in size
# Conditions: Drosophila S2 Gal4-RORgamma UAS-luciferase reporter, 20 h; series mostly up to 53.6 µM; activity change, negative = inhibition: at the top concentration
# Procedure, shortened: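 Luminescence from a UAS-regulated Photinus luciferase reporter in stably transfected Drosophila Schneider cells is measured; decreased signal marks ROR gamma inhibition. Fusion expression is induced by 700 uM copper sulfate for 20 hr.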
# % is set by controls: 0 for no effect and ±100 for the full control effect; potency is the fitted concentration of half-maximal effect.
# UniProt P51450, sequence (P51450 whole entry, looked up): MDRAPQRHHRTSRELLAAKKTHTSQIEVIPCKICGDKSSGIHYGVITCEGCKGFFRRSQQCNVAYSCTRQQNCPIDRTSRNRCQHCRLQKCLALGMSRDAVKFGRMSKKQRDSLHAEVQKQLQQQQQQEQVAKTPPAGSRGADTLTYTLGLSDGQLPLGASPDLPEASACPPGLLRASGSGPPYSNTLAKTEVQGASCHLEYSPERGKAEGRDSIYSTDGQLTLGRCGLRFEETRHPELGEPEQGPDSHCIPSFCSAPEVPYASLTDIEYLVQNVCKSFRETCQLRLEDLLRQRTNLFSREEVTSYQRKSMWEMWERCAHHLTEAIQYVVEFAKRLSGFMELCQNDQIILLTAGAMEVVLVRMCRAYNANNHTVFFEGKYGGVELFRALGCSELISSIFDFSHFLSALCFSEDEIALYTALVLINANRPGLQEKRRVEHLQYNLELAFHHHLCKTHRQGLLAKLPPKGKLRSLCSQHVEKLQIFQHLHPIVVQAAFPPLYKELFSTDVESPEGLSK
SMILES,Potency,"activity change, negative = inhibition"
Cc1ccsc1/C=N/NC(=O)c1sccc1C,active: 7.94 µM,
CCOc1cc(CC(=O)N[C@@H](CC(C)C)c2ccccc2N2CCCCC2)ccc1C(=O)O,,inactive: -14.5% [at 2.98 µM]
O=C(O)c1ccc(OCCn2ccnc2)cc1,,inactive: -0.743%
Cc1noc(NS(=O)(=O)c2ccc(N/C=C/C(=O)c3ccc4c(c3)OCO4)cc2)c1C,,inactive: 38.8%
COc1cccc([C@H](O)Cn2cc(-c3ccc(CON=C(C)C)cc3)nn2)c1,,inactive: 0.926% [at 10 µM]
Cc1cc(/C=C2\NC(=S)NC2=O)c(C)n1-c1cccnc1,,inactive: -13.3%
CCN1C(=NCCc2cccnc2)N[C@@H](c2ccccc2)[C@H](C(=O)OC)[C@H]1C,,inactive: -1.07%
COc1ccc(Oc2ccc(N/C=C3\CCCC3=O)cc2)cc1,,inactive: 38.8%
CC(C)c1ccc2c(c1)CCC1C(C)(CN)CCCC21C (stereo not drawn),,inactive: 29.4%
Cc1cccc2sc(NNC(=O)c3ccc(S(=O)(=O)N4CCCC(C)C4)cc3)nc12 (stereo not drawn),active: 3.55 µM,
CCOC(=O)[C@@H]1[C@H]2COc3ccccc3[C@@H]2N2C(=O)N(c3cccc(Cl)c3)C(=O)[C@]12C,,inactive: -9.14%
O=C(Nc1nncs1)C(Sc1ccccc1)c1ccccc1 (stereo not drawn),active: 11.2 µM,
COc1ccc(-c2nnc(-c3ccc(N(C)C)cc3)o2)cc1,active: 0.794 µM,
CC(C)=NOc1cc(NC(=O)CCl)cc([N+](=O)[O-])c1,active: 10 µM,
COc1cc2c(c(OC)c1OC)-c1c(cc(OC)c(OC)c1OC)C[C@H](C)[C@H](C)C2,,inactive: 0.847%
COc1ccc2c(c1)O[C@H](c1ccc3c(c1)OCO3)[C@@H](OC(=O)NS(=O)(=O)c1ccc(C)cc1)C2=O,,inactive: 3.97%
COC(=O)C1=C(C)N(CC2CC2)C(=O)N[C@H]1c1ccc(Br)cc1,,inactive: 11.9%
O=C(c1cccc(Cl)c1)N1CCC(=O)N([C@H](COCc2cccc(Cl)c2)Cc2ccccc2)CC1,,inactive: 4.82% [at 40.7 µM]
CC(=O)OC[C@@]1(O)C[C@]23CCC4c5ccoc5CC[C@@]4(C)C2CCC1C3 (stereo partly drawn),,inactive: -36.3%
CN(C)S(=O)(=O)c1cccc(C(=O)NC(=S)N(CCC#N)Cc2cccnc2)c1,active: 2 µM,
CC1CCC(C(C)C)C(OC(=O)Cn2c(-c3ccccc3)[n+](C)c3ccccc32)C1 (stereo not drawn),,inactive: -77.6%

SMILES,Potency,"activity change, negative = inhibition"
Cc1ccc(-c2ccc(/C=C(\C#N)C(N)=S)n2C)cc1,active: 2.24 µM,
C[C@@H]1CC[C@]2(O[C@@H](CCO)C[C@@H](O)[C@@H]2O)O1,,inactive: -21.6%
COc1ccc(C(=O)/C(C#N)=N/Nc2ccc([N+](=O)[O-])cc2)cc1,active: 5.62 µM,
CC(C)OC(=O)C(C)(C)Oc1ccc(C(=O)c2ccc(Cl)cc2)cc1,inactive,
CCOC(=O)[C@@H]1[C@H]2COc3ccc(Br)cc3[C@@H]2N2C(=O)N(c3ccccc3)C(=O)[C@]12C,,inactive: 23.4%
CC[n+]1c(/C=C(/C)SC)sc2ccccc21,,inactive: 59.5%
Oc1cccc(O)c1,,inactive: 30.8%
O=C1CC(c2ccccc2)c2cc(O)ccc2O1 (stereo not drawn),active: 11.2 µM,
CC(=O)/C=C(/C)NC(Cc1c[nH]c2ccccc12)C(=O)O (stereo not drawn),,inactive: -0.87%
CCCn1c(=O)c2[nH]c(C3CCCC3)nc2n(CCC)c1=O,inactive,
O=C(NCc1ccccc1)OCCN1CCN(Cc2ccccc2)CCC1=O,,inactive: 3.95%
NC(Cc1cc(I)c(Oc2ccc(O)c(I)c2)c(I)c1)C(=O)O (stereo not drawn),,inactive: 14.9%
NCCC(=O)N[C@H](Cc1cnc[nH]1)C(=O)O,,inactive: -23.5%
O=C(NCc1ccccc1)C1=C[C@H](c2csc3ccccc23)C[C@H](OCc2ccc(CO)cc2)O1,,inactive: 40.1%
CC1=NN(C(=O)Cc2ccc([N+](=O)[O-])cc2)C(O)(c2ccccc2)C1 (stereo not drawn),active: 8.91 µM,
CC(C)(C)c1ccc(C(=O)Nc2ccc(CC(=O)O)cc2)o1,active: 0.794 µM,
COC(=O)C1=C(C)N(Cc2ccco2)C(=O)N[C@H]1c1ccc(Br)cc1,,inactive: 14.8%
COc1ccc(N/C=C/C(=O)c2ccc3c(c2)OCO3)cc1OC,,inactive: 27%
COc1cc(O)c(C(CCN2CCCC(C)C2)c2cc(OC)c(OC)c(OC)c2)c(OC)c1 (stereo not drawn),,inactive: 3.53%
O=C(NCc1ccccn1)[C@@H]1C[C@H]1[C@@H](NP(=O)(c1ccccc1)c1ccccc1)c1ccccc1,,inactive: -6.58%
COc1ccc(C(=O)N/C(=C\c2cccc3ccccc23)C(=O)NCCc2c[nH]c3ccccc23)cc1OC,,inactive: -1.7%

SMILES,Potency,"activity change, negative = inhibition"
CC(C)CC(=O)NC(=S)Nc1cc(C(F)(F)F)ccc1N1CCOCC1,active: 7.94 µM,
Fc1ccc(SCCc2ccccn2)cc1,,inactive: -6.74%
CN(C)/C=N/c1cc(=O)n(C)c(=O)n1Cc1ccccc1,,inactive: -19.2%
CC(=O)Nc1scc(C)c1-c1nc2ccccc2s1,active: 1.12 µM,
CCn1c(SCc2ccc(Cl)cc2Cl)nc2nc3c(cc2c1=O)CCCC3,active: 7.08 µM,
COC(=O)[C@H](c1ccccc1Cl)N1CCc2sccc2C1,,inactive: -17.4%
NC(=O)c1ccccc1O,inactive,
Brc1ccc(C2=NC(Cc3ccccc3)CO2)cc1 (stereo not drawn),,inactive: -33.4%
O=C(/C=C\c1ccc(-c2ccccc2)o1)c1ccccc1,,inactive: 13.4%
O=C(NC1CCC(C(=O)O)CC1)OCc1ccccc1 (stereo not drawn),,inactive: -6.86%
O=C(C1=C[C@@H](C2CC2)C[C@@H](OCc2ccc(CO)cc2)O1)N1CCN(Cc2ccc3c(c2)OCO3)CC1,,inactive: 42.2%
Cc1c(Cl)cccc1Nc1ccccc1C(=O)O,inactive,
Oc1cc2c(cc1O)[C@@H](c1ccccc1)CNCC2,,inactive: -1.51%
COc1ccc(CN=C(Nc2ccccc2)SC2CC(=O)NC2=O)cc1 (stereo not drawn),active: 12.6 µM,
O=C(N/N=C/c1cccs1)c1ccc(-n2cccc2)cc1,active: 6.31 µM,
C=C1CCN(C(CC(C)C)C(=O)OC)S(=O)(=O)c2ccccc21 (stereo not drawn),,inactive: 2.07%
CCO[C@@H]1OC(C(=O)Nc2ccccc2)=C[C@H](c2ccc(Br)cc2)[C@H]1CCCO,,inactive: -2.79%
Cc1cc2nc(N)sc2cc1C,,inactive: -32.3%
CC(C)NC[C@H](O)c1ccc2ccccc2c1,,inactive: 5.65% [at 16.9 µM]
Cc1cc(-c2ccc(N=Nc3ccc4c(S(=O)(=O)O)cc(S(=O)(=O)O)c(N)c4c3O)c(C)c2)ccc1N=Nc1ccc2c(S(=O)(=O)O)cc(S(=O)(=O)O)c(N)c2c1O,,inactive: 15.3%
CN1CCN(CC/C=C2/c3ccccc3Sc3ccc(S(=O)(=O)N(C)C)cc32)CC1,,inactive: -89.5%

# From PubChem BioAssay AID2551 (National Center for Advancing Translational Sciences (NCATS), 2010)
